Over roughly 1,000 compounds, “relative growth recovery (pomalidomide 10 uM = 100%, DMSO = 0%)” has its median near -1.6; the highest 2% begin near 21. The list shows a part of the results.
Each compound was assayed on HEK293FT dCK*-IKZF1 (assay: relative growth recovery (pomalidomide 10 uM = 100%, DMSO = 0%); higher = more growth rescue (IKZF1 fusion degradation)). Details: compound concentration: 5 uM; AraC concentration: 0.3 uM; overnight pretreatment + 4 days AraC.
Experimental: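 Growth recovery screen of the molecular-glue-like (Specs) library. HEK293FT cells expressing a dCK*-IKZF1 fusion (primary) or dCK* alone (counter) were pretreated overnight with compound at 5 uM, then given 0.3 uM AraC for 4 days. Hoechst nuclei were counted by imaging. Primary: normalised to pomalidomide (100%) and DMSO (0%), mean of 2 replicates. Counter: normalised to no-AraC (100%) and AraC+DMSO (0%), single replicate.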

Row | Compound | relative growth recovery [%]
1 | COc1cc(NS(=O)(=O)c2ccc(NCc3ccccc3O)cc2)nc(OC)n1 | -2.96
2 | CN(Cc1ccccc1)[C@@H]1CCC[C@@H](n2cnc3c(N)nc(N)nc32)[C@@H]1O | 1.06
3 | CN1CCCc2cc(C(=O)N3CCCC3c3cccc(Nc4nccs4)n3)ccc21 (stereo not given) | 12.2
4 | Cc1cc(NS(=O)(=O)c2ccc(NC(=O)C(C)(C)C)cc2)nc(C)n1 | -1.96
5 | CCCc1cnc(Nc2cccc(C3CCN(C(=O)C4CCCCN4CC(=O)O)CC3)n2)s1 (stereo not given) | -13.7
6 | Cc1ccnc(NS(=O)(=O)c2ccc(NC(=O)COc3ccccc3)cc2)n1 | -1.05
7 | Cc1ccc(C)c2c1[nH]c1nc(SCC(=O)Nc3ccc(F)c(Cl)c3)nnc12 | -0.34
8 | COc1cc(C(=O)Nc2ccc(S(=O)(=O)Nc3ncccn3)cc2)cc(OC)c1OC | -0.2
9 | CC(C)Oc1ccc(C(=O)Nc2ccc(S(=O)(=O)Nc3ncccn3)cc2)cc1 | -5.52
10 | Cc1cc(C)nc(NS(=O)(=O)c2ccc(NC(=O)c3ccc(Cl)cc3)cc2)n1 | -3.43
11 | Cc1cccnc1Nc1nc(C2CCN(CC(N)=O)CC2)cs1 | -6.52
12 | COc1ccc(C(=O)Nc2ccc(S(=O)(=O)Nc3ncccn3)cc2)c(OC)c1 | -1.31
13 | COc1cc(NS(=O)(=O)c2ccc(NC(=O)Cc3ccccc3)cc2)nc(OC)n1 | -1
14 | O=C(C1CCCCC1)N1CCC(c2cccc(Nc3nccs3)n2)CC1 | -7.92
15 | Cc1cccc(C)c1OCC(=O)Nc1ccc(S(=O)(=O)Nc2ncccn2)cc1 | 1.77
16 | CC(=O)NC1(CC(=O)N2CCC(c3cccc(Nc4ncc(C)s4)n3)CC2)CCCCC1 | -11.7
17 | O=C1CCC(N2C(=O)c3ccc(Br)cc3C2=O)C(=O)N1 (stereo not given) | -13.2
18 | Cc1cnc(Nc2cccc(C3CCN(CC(=O)N4CCC(C)CC4)CC3)n2)s1 | -0.65
19 | Cc1ccc(C(C)C)c(OCC(=O)Nc2ccc(S(=O)(=O)Nc3ncccn3)cc2)c1 | 0.11
20 | COc1ccccc1OCC(=O)Nc1ccc(S(=O)(=O)Nc2nc(C)cc(C)n2)cc1 | 0.575

Row | Compound | relative growth recovery [%]
21 | COc1cccc(C(=O)Nc2ccc(S(=O)(=O)Nc3ncccn3)cc2)c1 | 0.05
22 | Cc1ccnc(NS(=O)(=O)c2ccc(NC(=O)c3cccc(Cl)c3)cc2)n1 | -1.19
23 | Cc1cc(NS(=O)(=O)c2ccc(NC(=O)CCCOc3ccccc3C)cc2)nc(C)n1 | 3.3
24 | COc1ccc(C(=O)Nc2ccc(S(=O)(=O)Nc3ncccn3)cc2)cc1OC | 0.805
25 | Cc1ccnc(NS(=O)(=O)c2ccc(NC(=O)CC(C)(C)C)cc2)n1 | 1.86
26 | COCC(C)NC(=O)CN1CCC(c2cccc(Nc3nc(C)c(C)s3)n2)CC1 (stereo not given) | 13.9
27 | Cc1cc(NS(=O)(=O)c2ccc(NC(=O)c3ccc(Br)cc3)cc2)nc(C)n1 | -1.85
28 | Cc1cc(C)nc(NS(=O)(=O)c2ccc(NC(=O)c3sc4nc5c(cc4c3N)CCC5)cc2)n1 | -3.65
29 | COc1ccc(S(=O)(=O)Nc2ccc(S(=O)(=O)Nc3ncccn3)cc2)cc1 | -2
30 | Cc1cc(C)nc(NS(=O)(=O)c2ccc(NC(=O)c3ccccc3[N+](=O)[O-])cc2)n1 | -3.98
31 | CC(C)(N)C(=O)N1CCC(c2cccc(Nc3ncc(-c4cccnc4)s3)n2)CC1 | -13.5
32 | O=C1CCC(N2C(=O)c3ccc(C(=O)O)cc3C2=O)C(=O)N1 (stereo not given) | -0.47
33 | Cc1cc(NS(=O)(=O)c2ccc(NC(=O)c3cc4ccccc4o3)cc2)nc(C)n1 | -0.785
34 | Cc1ccc(C)c(OCC(=O)Nc2ccc(S(=O)(=O)Nc3ccccn3)cc2)c1 | -5.29
35 | Cc1nc(Nc2cccc(C3CCCN3C(=O)COCCN3CCCC3=O)n2)sc1C (stereo not given) | 5.06
36 | CCC(Oc1ccccc1)C(=O)Nc1ccc(S(=O)(=O)Nc2nc(C)cc(C)n2)cc1 (stereo not given) | -3.29
37 | COc1cc(NS(=O)(=O)c2ccc(NC(=O)c3ccc(C#N)cc3)cc2)nc(OC)n1 | -3.52
38 | Cc1ncc(C(=O)N2CCOC(c3cccc(Nc4nc(C)c(C)s4)n3)C2)c(C)n1 (stereo not given) | 7
39 | Cc1cc(C)nc(NS(=O)(=O)c2ccc(NC(=O)c3ccc(C(C)(C)C)cc3)cc2)n1 | 2.96
40 | O=C(Nc1ccc(S(=O)(=O)Nc2ncccn2)cc1)C1CC(=O)N(CCc2ccc(F)cc2)C1 (stereo not given) | -0.54

Row | Compound | relative growth recovery [%]
41 | Cc1nc(C)c(C(=O)N2CCOC(c3cccc(Nc4ncc(C)s4)n3)C2)o1 (stereo not given) | -12.6
42 | Cc1ccc(N2C(=O)c3ccc(Oc4ccc(N)cc4)cc3C2=O)cc1 | -1.57
43 | Cc1cnc(Nc2cccc(C3CN(C(=O)C(C)n4cnc5ccccc54)CCO3)n2)s1 (stereo not given) | -7.25
44 | CCc1ccc(N2CC(C(=O)Nc3ccc(S(=O)(=O)Nc4ncccn4)cc3)CC2=O)cc1 (stereo not given) | -0.75
45 | CCCc1cnc(Nc2cccc(C3(CO)CCN(C(=O)C4CCCCC4)CC3)n2)s1 | -17
46 | Cn1c(=O)c2c(ncn2CC(=O)Nc2ccc(S(=O)(=O)Nc3ncccn3)cc2)n(C)c1=O | 1.62
47 | COc1nccnc1NS(=O)(=O)c1ccc(NC(=S)NC(=O)c2ccco2)cc1 | -1.62
48 | Cc1cc(C)cc(OCC(=O)Nc2ccc(S(=O)(=O)Nc3ccccn3)cc2)c1 | -4.37
49 | COc1cc2c(cc1CCC(=O)N1CCCC1c1cccc(Nc3nccs3)n1)CCC2 (stereo not given) | 5.58
50 | COc1cc(C(=O)Nc2ccc(S(=O)(=O)Nc3ccccn3)cc2)cc(OC)c1OC | -2.18
51 | Cc1ccnc(NS(=O)(=O)c2ccc(NC(=O)c3ccccc3C(=O)O)cc2)n1 | -6.74
52 | O=C1CCC(N2C(=O)c3cccc(N4CCC(Cn5cc(C(=O)O)cn5)CC4)c3C2=O)C(=O)N1 (stereo not given) | 2.77
53 | COc1ccc(NS(=O)(=O)c2ccc(N)cc2)nn1 | 3.75
54 | COc1cc(NS(=O)(=O)c2ccc(NC(=O)CCC(=O)O)cc2)nc(OC)n1 | -2.29
55 | Cc1nc(Nc2cccc(C3CCN(C(=O)CCc4c(C)n[nH]c4C)CC3)n2)sc1C | 26
56 | Cc1csc(Nc2cccc(C3CCCN3C(=O)c3ccc4c(c3)CCCN4C)n2)n1 (stereo not given) | 7.5
57 | Cc1cccc(OCCCC(=O)Nc2ccc(S(=O)(=O)Nc3nc(C)cc(C)n3)cc2)c1 | -2.6
58 | O=C(O)CCOCCOCCOCCNc1ccc2c(c1)C(=O)N(C1CCC(=O)NC1=O)C2=O (stereo not given) | -5.78
59 | COCC(=O)N1CCCC1c1cccc(Nc2ncc(C)s2)n1 (stereo not given) | 2.41
60 | COc1ccc(CC(=O)Nc2ccc(S(=O)(=O)Nc3ncccn3)cc2)cc1OC | -16.6
